Test results as given in PubChem BioAssay AID686978 (National Center for Advancing Translational Sciences (NCATS), 2013).
Among all 420,000 compounds or so, about 64,000 (15%) were called active. Inconclusive results, whose numbers are uncertain, are shown with a selection of clear calls. Calls follow the shape of the dose curve; as a rule, active = well fitted inhibition curve with a large enough effect; inconclusive = small, poorly fitted or top-dose-only effect; inactive = flat fitted curve, though single readings scatter. Potencies of inconclusive entries are left out as doubtful fits.

assay: qHTS for Inhibitors of human tyrosyl-DNA phosphodiesterase 1 (TDP1): qHTS in cells in absence of CPT; conditions: DT40 Tdp1-/- hTDP1 cells, no CPT, ATP luminescence, 48 h; activity change, negative = growth inhibition: at 46.2 µM (top of the series) unless noted; also: nearly all actives have a fitted effect of over 55% in size
In short: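 No-CPT arm: Tdp1-/-;hTDP1 DT40 cells (400/well) plus compounds, incubated ≥48 hr at 37 °C. Readout CellTiter-Glo luminescence.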
% is scaled to controls: 0 for no effect and ±100 for the full control effect; potency is read from the fitted curve at half-maximal effect; tags tell the direction and shape of the fitted curve.

Row | Structure (SMILES) | Potency | activity change, negative = growth inhibition
1 | CCc1nc2ccc(C(=O)NCc3cc(OC)ccc3OC)cc2nc1CC | inconclusive [inhibitor, single point] | –
2 | CNC(=O)c1ccsc1NC(=O)CCS(=O)(=O)c1ccc(Cl)cc1 | inconclusive [inhibitor, single point] | –
3 | Cc1ccc(NCc2n[nH]c(=S)n2Cc2ccccc2)cc1Cl | inconclusive [inhibitor, single point] | –
4 | CCc1cc(=O)oc2cc(C)cc(O)c12 | inconclusive [inhibitor, single point] | –
5 | CN1C(C(=O)NCc2ccc(OC(F)(F)F)cc2)CC2Cn3c(nc4cc(Cl)c(Cl)cc43)C21 (stereo not given) | inconclusive [inhibitor, single point] | –
6 | COc1cccc(-c2nccc(NCc3cnc(C)cn3)n2)c1 | – | inactive: -18.1%
7 | Cc1cc(NC(=O)CSc2nc(C3CC3)nc3sc4c(c23)CCC(C)C4)no1 (stereo not given) | active: 18.4 µM | –
8 | O=C(Nc1ccccc1Cc1ccccc1)c1ccccc1NS(=O)(=O)c1ccc(Cl)s1 | active: 3.66 µM | –
9 | Cc1ccc(-c2nn3c(C)nnc3s2)cc1NC(=O)c1ccc(OC(C)C)cc1 | inconclusive [inhibitor, single point] | –
10 | Cc1cccc2sc(N(CCN(C)C)C(=O)c3ccc4c(c3)OCCO4)nc12 | inconclusive [inhibitor, single point] | –
11 | CN1C(c2ccccc2)CC(=NO)CC1c1ccccc1 (stereo not given) | inconclusive [inhibitor, single point] | –
12 | CN(CC(=O)Nc1c(Cl)cccc1Cl)CC(=O)N1CCc2ccccc21 | inconclusive [inhibitor, single point] | –
13 | O=C(Nc1ccccc1N1CCOCC1)c1ccc(Br)o1 | active: 23.1 µM | –
14 | CCOc1ccc(CCNC(=O)CS(=O)(=O)Cc2nc(-c3ccc(OC)cc3)oc2C)cc1 | inconclusive [inhibitor, partial curve] | –
15 | COc1cccc(OCCn2cc(C=O)c3ccccc32)c1 | inconclusive [inhibitor, single point] | –
16 | COc1ccccc1N1CCN(C(c2cccs2)C(C)NC(=O)c2ccco2)CC1 (stereo not given) | inconclusive [inhibitor, single point] | –
17 | CC(C)N(C(=O)COC(=O)[C@@H]1CC(O)CN1S(=O)(=O)c1ccc(C(C)(C)C)cc1)C(C)C (stereo not given in full) | inconclusive [inhibitor, single point] | –
18 | COc1ccc(-c2nc(CSCC(=O)N3CCN(c4cc(Cl)ccc4C)CC3)c(C)o2)cc1 | active: 16.4 µM | –
19 | Cc1cc(OCC(=O)NCC(c2cccs2)N2CCOCC2)ccc1C(C)C (stereo not given) | inconclusive [inhibitor, partial curve, poor fit] | –
20 | Cc1ccc(-n2c(SCC(=O)Nc3cccc(S(=O)(=O)NC4=NCCCCC4)c3)nc3ccccc3c2=O)cc1 | inconclusive [inhibitor, single point] | –
21 | CC(=O)N1CCc2cc(S(=O)(=O)CCC(=O)Nc3ccc(C)cc3Br)ccc21 | inconclusive [inhibitor, single point] | –
22 | Cc1ccc(Cn2c(C)c3cnn(CC(=O)NCc4ccccc4)c(=O)c3c2C)cc1 | active: 2.91 µM | –
23 | COc1ccc(-c2cn[nH]c2-c2ccc(O)cc2O)cc1 | inconclusive [inhibitor, full curve] | –
24 | CCN(CC)c1ccc(NC(=O)c2cnn(-c3ccccc3)c2-n2cccc2)c(C)c1 | active: 10.3 µM | –

Row | Structure (SMILES) | Potency | activity change, negative = growth inhibition
25 | O=C(CCS(=O)(=O)c1ccc(Cl)cc1)NCCN1C(=O)S/C(=C\c2ccccc2F)C1=O | active: 16.4 µM | –
26 | CCN(CC)CCCN(Cc1cc2ccc(C)c(C)c2[nH]c1=O)C(=O)NC1CCCCC1 | inconclusive [inhibitor, single point] | –
27 | Cc1cc(C(=O)OCC(=O)c2ccc(Cl)c([N+](=O)[O-])c2)c2cccc(C)c2n1 | inconclusive [inhibitor, single point] | –
28 | Cc1ccsc1CNS(=O)(=O)c1ccc(F)cc1 | – | inactive: 15%
29 | Cc1ccc2nc(SC(C)C(=O)NC3CCCC3)[nH]c2c1 (stereo not given) | inconclusive [inhibitor, single point] | –
30 | O=[N+]([O-])c1cc(C(F)(F)F)cc([N+](=O)[O-])c1NCCNC(=S)Nc1cccc(F)c1 | active: 25.9 µM | –
31 | CCN(CC)C(=O)CC(c1ccc2c(c1)OCO2)c1c(OC)cc(OC)c2c(-c3ccccc3)cc(=O)oc12 (stereo not given) | inconclusive [inhibitor, single point] | –
32 | COc1ccc(C(=O)CCN2CCN(c3ccc(OC)cc3)CC2)cc1 | active: 2.06 µM | –
33 | O=[N+]([O-])c1cc(S(=O)(=O)Nc2ccccc2)ccc1N1CCN(c2ccc(O)cc2)CC1 | inconclusive [inhibitor, single point] | –
34 | CCCCc1cc(=O)oc2cc(C)cc(OC(C)C(=O)O)c12 (stereo not given) | inconclusive [inhibitor, partial curve, poor fit] | –
35 | C[C@H](NC(=O)[C@@H]1CCCN1C(=O)[C@@H]1CCCN1C(=O)c1cccc2ccccc12)c1ccccc1 | inconclusive [inhibitor, single point] | –
36 | O=C(NCCCN1CCCCCC1)c1ccc2c(c1)sc1nc(-c3ccccc3)cn12 | active: 3.66 µM | –
37 | O=S(=O)(Nc1ccon1)c1ccc(F)c(F)c1 | – | inactive: 15.4%
38 | Nc1c(N(C(=O)Nc2ccc(Cl)c(Cl)c2)C2CCCC2)c(=O)[nH]c(=O)n1Cc1ccccc1 | inconclusive [inhibitor, single point] | –
39 | Nc1cc(Cl)cc2c1-c1ccc(Cl)cc1C2 | inconclusive [inhibitor, single point] | –
40 | CCCc1nc2c([nH]1)C(c1cccnc1)C(C#N)=C(N)O2 (stereo not given) | – | inactive: -10.3%
41 | COc1ccc(-c2nc(CS(=O)(=O)CC(=O)NCc3ccccc3Br)c(C)o2)cc1 | inconclusive [inhibitor, single point] | –
42 | Cc1cccc(NC(=O)c2cc(-c3cc(Cl)ccc3O)n[nH]2)c1 | inconclusive [inhibitor, partial curve] | –
43 | CCN1CCCC1CNC(=O)c1ccc(CS(=O)(=O)c2ccccc2C)o1 (stereo not given) | – | inactive: -9.45%
44 | Cc1ccc(OCCn2cnc(Cl)c2Cl)cc1 | – | inactive: -3.77%
45 | COc1ccc(C(=O)C2CCN(CC(=O)Nc3ccc(C)cc3)CC2)cc1 | active: 29.1 µM | –
46 | CCN(c1ccccc1)S(=O)(=O)c1ccc(OC)c(NC(=O)CNC)c1 | – | inactive: -27.2%
47 | CCOc1ccccc1CN1CCCC(CNS(=O)(=O)c2ccc(OC)cc2)C1 (stereo not given) | inconclusive [inhibitor, single point] | –
48 | COc1cc(OC)c(NC(=O)c2ccc3c(SCC(=O)O)c4c(nc3c2)CCCC4)cc1Cl | – | inactive: 11%

Row | Structure (SMILES) | Potency | activity change, negative = growth inhibition
49 | CCC(C(=O)Nc1ccc(C)c(C)c1)n1c(=O)c(C(F)(F)F)nc2ccccc21 (stereo not given) | inconclusive [inhibitor, single point] | –
50 | Cc1ccc(CNC(=O)CCCn2c(=O)c3ccccc3n(CC(=O)Nc3ccc(C)cc3)c2=O)cc1 | – | inactive: -6.97%
51 | COc1cc(CC(=O)Oc2ccc3c(c2)OCO3)cc(OC)c1OC | inconclusive [inhibitor, single point] | –
52 | COCCn1c(=S)[nH]c2cc(C(=O)N3CCN(Cc4ccc5c(c4)OCO5)CC3)ccc2c1=O | active: 18.4 µM | –
53 | COc1ccc(N=C2C(=O)Nc3ccccc32)cc1 | – | inactive: -6.31%
54 | CC(C)(C)OC(=O)NCCCCCc1nnc(SCc2ccccc2F)o1 | inconclusive [inhibitor, single point] | –
55 | CC(C)CC(=O)NC(=S)Nc1ccc(N2CCOCC2)c(Cl)c1 | inconclusive [inhibitor, partial curve] | –
56 | CC1=C(C(=O)OCc2ccccc2)C(c2ccc(C)cc2)NC(=O)N1 (stereo not given) | – | inconclusive: -34.1% [inhibitor]
57 | O=C1CCC(C(=O)N(CCO)Cc2ccccc2)CN1CC1CCCCC1 (stereo not given) | – | inactive: -14.6%
58 | CC(=O)Nc1cccc(-n2nnc(SCC(=O)Nc3ccc(F)c(Cl)c3)n2)c1 | inconclusive [inhibitor, single point] | –
59 | COC(=O)C1CC(O)CN1C(=O)Nc1cccc(C(F)(F)F)c1 (stereo not given) | – | inactive: 4.44%
60 | CCOc1ccc(-n2nc3ccc(N)cc3n2)cc1 | inconclusive [inhibitor, partial curve] | –
61 | FC(F)(F)c1cc(Sc2ccccc2)nc(-c2ccccn2)n1 | active: 14.6 µM | –
62 | C=CCOc1cccc(C(=O)/C=C2/C(=O)Nc3ccccc32)c1 | active: 6.51 µM | –
63 | CCc1ccc(CSc2nccn2-c2ccccc2)cc1 | inconclusive [inhibitor, single point] | –
64 | CCCOC(=O)c1cccc(NC(=O)C(C)(C)C)c1 | inconclusive [inhibitor, single point] | –
65 | COc1ccc(CCn2c(-c3cc([N+](=O)[O-])cc([N+](=O)[O-])c3)nc3nc4ccccc4nc32)cc1OC | active: 23.1 µM | –
66 | O=C(O)COc1ccc(/C=N/n2cnc3scc(-c4cccs4)c3c2=O)cc1 | – | inactive: -12.4%
67 | COc1ccc(CC(N)c2csc(Nc3nccc(C(F)(F)F)n3)n2)cc1 (stereo not given) | inconclusive [inhibitor, single point] | –
68 | CC(=O)C1C(c2ccc(Cl)cc2)NC(=O)NC1(O)C(F)(F)F (stereo not given) | – | inactive: 3.1%
69 | COc1cc(/C=C/C(=O)O)cc(S(=O)(=O)NCc2ccc3c(c2)OCO3)c1OC | inconclusive [inhibitor, single point] | –
70 | Cc1ccc2cc(C#N)c(N3CCCN(S(=O)(=O)c4ccc(F)cc4)CC3)nc2c1 | active: 14.6 µM | –
